Whole data set: some 18,000 sequences, median “TetR repression strength (sort-seq, GFP reporter)” near 0.23, cut for the highest 2% near 0.68. This is one part of the list.

In this assay the target is TetR (class B, Tn10) (UniProt P04483). Nature of the assay: TetR repression strength (sort-seq, GFP reporter) (relative to tetO2 = 1); higher = stronger repression. The settings on record: E. coli. The gist of the method: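 Escherichia coli SIG10-MAX cells carried a low-copy plasmid library in which eight operator positions were randomized between a constitutive promoter and sfGFP, and TetR was expressed constitutively. After 5 h of growth at 37 °C in LB with 50 µg/mL chloramphenicol, 10^6 cells were FACS-sorted into 13 fluorescence bins, and each bin was Illumina-sequenced. Repression strength was the top bin index plus one minus the read-weighted mean bin, divided by the value for the unaltered operator. Across three independent transformations, only library members with ≥30 reads in every replicate and a CV ≤0.5 were averaged.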
Chain of UniProt P04483 (P04483 whole entry): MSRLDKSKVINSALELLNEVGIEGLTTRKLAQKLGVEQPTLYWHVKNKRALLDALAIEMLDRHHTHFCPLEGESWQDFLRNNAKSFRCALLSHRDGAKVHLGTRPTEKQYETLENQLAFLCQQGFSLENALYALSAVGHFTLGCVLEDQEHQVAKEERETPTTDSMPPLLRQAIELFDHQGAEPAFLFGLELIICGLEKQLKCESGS
Consider TCCCATACAGTAACCGAGA, for which the TetR repression strength turned out to be 0.199.
Regarding TCCCGCTCAGTACCCGAGA, the TetR repression strength came out at 0.195.
Sequence TCCCGCACAGTATTCGAGA registered a TetR repression strength of 0.267.
Under TCCCTGAGAGTACAAGAGA stands 0.322; under TCCCCGGGAGTTATGGAGA, 0.274; under TCCCCACAAGTCGCAGAGA, 0.18.
In turn, TCCCGAATAGTGTTGGAGA yielded a TetR repression strength of 0.203.
In the case of TCCCGGAGAGTAATAGAGA it was 0.242; in that of TCCCCGTGAGTTTATGAGA, 0.426; in that of TCCCGTCCAGTAGCAGAGA, 0.338.
Under TCCCGAACAGTGCACGAGA stands 0.169.
In the case of TCCCAATGAGTACCGGAGA it was 0.195.
In turn, TCCCGCAGAGTGTGTGAGA came in with a TetR repression strength of 0.0673.
Under TCCCGAGGAGTAGTGGAGA stands 0.247; under TCCCAAAGAGTGGGCGAGA, 0.0498; under TCCCCTCGAGTAGAAGAGA, 0.28.
TCCCTCGGAGTGTCTGAGA: the TetR repression strength came to 0.173.
Under TCCCGCACAGTAAGTGAGA stands 0.229.
Under TCCCTGCCAGTCTAGGAGA stands 0.415.
In the case of TCCCTCGTAGTGGTGGAGA it was 0.176; in that of TCCCTACGAGTAAGGGAGA, 0.178.
The sequence TCCCCTTTAGTCGTGGAGA yielded a TetR repression strength of 0.155.
Sequence TCCCTTTCAGTGCTGGAGA showed a TetR repression strength of 0.363.
Sequence TCCCGGCGAGTAGGAGAGA registered a TetR repression strength of 0.291.
In the case of TCCCTTGCAGTTTCGGAGA it was 0.461; in that of TCCCCCTTAGTACCTGAGA, 0.315; in that of TCCCTGTCAGTAATTGAGA, 0.419.
TCCCGGCGAGTAGACGAGA came in with a TetR repression strength of 1.03.
As to TCCCTATTAGTTGTCGAGA, the TetR repression strength worked out at 0.278.
Under TCCCTGTCAGTGTATGAGA stands 0.395; under TCCCTAGGAGTTGGTGAGA, 0.302.
Under TCCCGAATAGTGGTAGAGA stands 0.389; under TCCCGCAGAGTACGGGAGA, 0.371.
Under TCCCTAAAAGTGGGAGAGA stands 0.203.
The sequence TCCCATGGAGTCTATGAGA registered a TetR repression strength of 0.139.
In the case of TCCCATCGAGTGTACGAGA it was 0.43.
For TCCCAATAAGTGTGTGAGA, the TetR repression strength came out at 0.369.
Sequence TCCCACATAGTCGCGGAGA gave a TetR repression strength of 0.173.
In the case of TCCCGACGAGTGCGCGAGA it was 0.0423; in that of TCCCTGTAAGTGATGGAGA, 0.226.
Under TCCCGGGGAGTGCAGGAGA stands 0.176; under TCCCATAGAGTTCGGGAGA, 0.161; under TCCCGAGCAGTGATCGAGA, 0.708.
In the case of TCCCGACTAGTGTAAGAGA it was 0.311; in that of TCCCTTTGAGTGGATGAGA, 0.185; in that of TCCCTTGGAGTGCCGGAGA, 0.477.
TCCCCTTTAGTGGTGGAGA: the TetR repression strength stood at 0.326.
In the case of TCCCAATGAGTAACAGAGA it was 0.19; in that of TCCCCAACAGTCTTGGAGA, 0.692.
In turn, TCCCCGTTAGTAGGCGAGA came in with a TetR repression strength of 0.153.
Under TCCCCTTAAGTCAGTGAGA stands 0.252.
Consider TCCCTTATAGTGCAGGAGA, for which the TetR repression strength came to 0.0183.
Under TCCCATTTAGTGCAAGAGA stands 0.382; under TCCCTAGCAGTGACGGAGA, 0.2.
Under TCCCTGGCAGTGTGGGAGA stands 0.0722; under TCCCTATGAGTCGTAGAGA, 0.147.
In the case of TCCCTAGTAGTACTCGAGA it was 0.224; in that of TCCCTAGGAGTATATGAGA, 0.0303.
The sequence TCCCACCGAGTCGCAGAGA showed a TetR repression strength of 0.397.
TCCCTATGAGTTATAGAGA had a TetR repression strength of 0.439.
TCCCTGTTAGTAAGGGAGA displayed a TetR repression strength of 0.355.
In the case of TCCCCGATAGTGTGAGAGA it was 0.127.
The sequence TCCCATCTAGTTAAAGAGA showed a TetR repression strength of 0.415.
In the case of TCCCTCTGAGTGCAGGAGA it was 0.166; in that of TCCCACAGAGTCACAGAGA, 0.174; in that of TCCCGGGGAGTCAAGGAGA, 0.21.
In the case of TCCCGTGCAGTCGCCGAGA, the TetR repression strength is 0.207.
In the case of TCCCCCGGAGTGCTCGAGA it was 0.621.
TCCCTACCAGTTTGGGAGA came in with a TetR repression strength of 0.0908.
The sequence TCCCTCTGAGTGAGGGAGA displayed a TetR repression strength of 0.145.
As for TCCCTGTCAGTCTTGGAGA, the TetR repression strength came out at 0.222.
In the case of TCCCTCAGAGTAAAGGAGA it was 0.218; in that of TCCCCGCTAGTATGGGAGA, 0.297; in that of TCCCGAGAAGTTGAGGAGA, 0.176.
In the case of TCCCTGGTAGTTCGAGAGA it was 0.162; in that of TCCCGCTCAGTGCTGGAGA, 0.253; in that of TCCCGATCAGTTGGTGAGA, 0.327.
In the case of TCCCAGCCAGTAACGGAGA it was 0.0633.
For the sequence TCCCGCGAAGTAGAGGAGA, the TetR repression strength was found to be 0.374.
For the sequence TCCCGCAAAGTACGGGAGA, the TetR repression strength was 0.226.
Under TCCCGTAGAGTGTAAGAGA stands 0.32; under TCCCACAGAGTCGGGGAGA, 0.0536.
In the case of TCCCGGCGAGTTGACGAGA it was 0.257; in that of TCCCGGTGAGTCTTGGAGA, 0.287; in that of TCCCGGTGAGTCTCAGAGA, 0.317.
In the case of TCCCCCGTAGTGTAAGAGA it was 0.415; in that of TCCCGAACAGTCTAGGAGA, 0.304.
TCCCACGTAGTCAATGAGA: the TetR repression strength worked out at 0.157.
As to TCCCAATAAGTATCGGAGA, the TetR repression strength stood at 0.263.
Take TCCCCGGAAGTGGAGGAGA: the TetR repression strength was 0.212.
Under TCCCTGTGAGTGATAGAGA stands 0.456; under TCCCCAATAGTAACGGAGA, 0.218.
In the case of TCCCAAGAAGTTACAGAGA it was 0.251; in that of TCCCTGTGAGTCTCTGAGA, 0.227; in that of TCCCCGCGAGTGGAGGAGA, 0.304.
In the case of TCCCCATTAGTGCGCGAGA it was 0.385; in that of TCCCAGAAAGTCCCTGAGA, 0.307.
In turn, TCCCCACGAGTTAAAGAGA showed a TetR repression strength of 0.413.
Under TCCCTGACAGTTGTAGAGA stands 0.174; under TCCCGGGGAGTGACCGAGA, 0.379.
TCCCACTGAGTGGTGGAGA returned a TetR repression strength of 0.433.
Under TCCCATATAGTGCGAGAGA stands 0.274.
